# Assay results from the supplement of paper PMC11417369.
# ± gives the standard deviation of the averaged measurements. The list shows a part of the results.
# Tested on: PfAP2-G AP2 domain (GST-tagged)
# Test: gcPBM binding intensity (ln(normalized median fluorescence intensity)); higher = stronger DNA binding
# In short: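 Binding intensity is defined as the maximum Masliner-normalised natural-log median intensity across replicate spots for either probe orientation. It was measured on an Agilent 4 × 180k array of primer-extended double-stranded 36-bp intergenic genomic probes and negative controls, to which GST-tagged P. falciparum DNA-binding domains made in E. coli were applied for 1 h in 1× PBS with 1% milk, 0.2 mg/ml BSA, 0.5% salmon testes DNA and 0.03% Triton X-100. Detection was by Alexa488 anti-GST antibody and scanning at 488 nm.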
row,Sequence,gcPBM binding intensity (ln)
1,AGTCAATTTTGTGTGTCAACATTTATATAAAGAATG [TGCATGCA_negctrl_site400],10.4 ± 0.29
2,TGTGAAAATTATGGGGCATGCAATACTTTAAAAATA [TGCATGCA_site653],10.3 ± 0.42
3,TTTTGGCTGATCAGATTTAACAAAAAAAAAAAAAAA [CACACA_negctrl_site671],9.71 ± 0.44
4,ATCAGTCGGCAGGACAGTACACAGTAGCCAGGAAAT [XGTACX_site2003],11.1 ± 0.71
5,GCTTTTTATTTTTACCGTACATTATATATGTATATA [XGTACX_site808],10.9 ± 0.52
6,ATATTATTAATTTATAGTACTCATTTTTTTTTTTTT [XGTACX_site3536],11.2 ± 0.76
7,TTCCAAAATTGCATTTGTACCCAAAAAATGTATACG [XGTACX_site7680],11.2 ± 0.75
8,GTAAGTTTGAATACACGTACAAATTTATTAAAGTCC [XGTACX_site6722],11.3 ± 0.83
9,AGATATTAAAACGTTACACACATTTATATATCTTCT [CACACA_site908],9.74 ± 0.2
10,AATATATATATAGGATGTACACATAATTCAAATACA [XGTACX_site6368],11.5 ± 0.85
11,TATATATATATAAACTGTACTATTTTATGTTAAAAG [XGTACX_site3630],11.4 ± 0.87
12,ATTTAATACAAATACACACACAAATATATACATATA [CACACA_site3747],10.01 ± 0.035
13,ATGGTATATCCAAATAAACACACGTAAATACATAAA [CACACA_site1682],10.2 ± 0.17
14,ATACATTTTTGTAAAAGTACATATACATGCCCCCTT [XGTACX_site1367],11.6 ± 0.91
15,ATATATATATTTGTGTGTACATATTAATTTGTATGA [XGTACX_site4047],11.5 ± 0.88
16,AACGCGAACAATTTATAGATAACTTTTAATTATTAT [GTGCAC_negctrl_site179],9.865 ± 0.007
17,CAGCTCTTAAAAATTACACACATATACACATATATA [CACACA_site9073],9.91 ± 0.18
18,TTATTACACACATATGTGCACATATAAAAGTACACG [GTGCAC_site9581],11.5 ± 0.9
19,TTTATAATTTATATCACACATATATCTGTAATAAAT [CACACA_site5048],9.65 ± 0.13
20,ATCTCTGTAAAGATCACACATATATTTTTGTTATAT [CACACA_site5094],9.865 ± 0.078
21,TATATATTATATATATGTACATATTGTTGTGTATAT [XGTACX_site767],11.2 ± 0.86
22,CATATATGTTATATTTAACACACATATAAGGTACAT [CACACA_site8105],11.2 ± 0.95

row,Sequence,gcPBM binding intensity (ln)
1,ATATAATAAATATGTTGTACTATAAAAAATAGCCAT [XGTACX_site4710],11.2 ± 0.77
2,TTTCTAGTTACAAGAGTGCATAATATATAAAAATAA [GTGCAC_site9874],10.2 ± 0.26
3,TATATATATATATATACACACATTTTTAATGATAAA [CACACA_site2695],10.1 ± 0.37
4,TATAAATACAATTCACAAGAGATCATGTATCAAACC [CACACA_negctrl_site1219],9.87 ± 0.042
5,AGAAAATATTTTGGTTGTACAGGCGATTTATATGTT [XGTACX_site7253],11.2 ± 0.71
6,AAAAAAAAAAAAAAAAAAAAAAAAAAAAGAAAAAAG [GTGCAC_negctrl_site583],11 ± 0.44
7,ACTAATTACTATAAAACACACATATATATATATATA [CACACA_site2591],10.2 ± 0.55
8,TTAGTCGAATGATGTACACACATACAAAACATTTAT [CACACA_site6076],11.5 ± 1
9,GATCATTTAAAATAAGTAATATTTTTTTTACTTTTG [TGCATGCA_negctrl_site602],9.62 ± 0.26
10,TTATAAAAGAAAAAAAAAAAAAAAAAAAAAAAAAAA [CACACA_negctrl_site1006],9.51 ± 0.2
11,TTATATTTTCAGAATAGTACACATATATACATATAT [XGTACX_site2519],11.4 ± 0.96
12,AAAAATTCTTGGCGCACACACTTTAAAAATTAAAAA [CACACA_site4498],10.5 ± 0.53
13,ATCTATGTTCCTTTTACACACATAATCTTTTTTTTA [CACACA_site5468],10.29 ± 0.078
14,ATATATATATATTATACACACAAAAATATTTTGTAT [CACACA_site266],10.1 ± 0.33
15,AGCATTTTAAAAGAAAAAAAAAAAAAAAAAAAAATA [GTGCAC_negctrl_site723],9.59 ± 0.33
16,TTTTGTTTTTACGAATACTTTTTTAATTTTATTTAT [TGCATGCA_negctrl_site395],9.96 ± 0.4
17,CATGCATACTACATCTGTACACATACATTATATTTA [XGTACX_site2495],11.4 ± 1
18,CGTGGGAGCAGACACACACACACACGCATATTTATA [CACACA_site6290],10.16 ± 0.099
19,ATGGACAAAAAATATATACACACGAGGAAACCAACA [CACACA_site3726],10.5 ± 0.25
20,ATATATATAGATTGTACACACATTTATGCATATATA [CACACA_site3222],11.3 ± 0.83
21,GTAAATTATATAACAAATAAAAATGTACATATATAT [CACACA_negctrl_site408],11.4 ± 0.73
22,TATACTTTATATATTTTGTATATATATTTTTTTTAT [TGCATGCA_negctrl_site530],9.645 ± 0.035

row,Sequence,gcPBM binding intensity (ln)
1,TCTTGTTATTTAAATGCATGTTGATTTTAAAAAATT [TGCATGCA_site840],10 ± 0.12
2,AATAAAAAGTAATAATAACGTATAATTTATTATACT [TGCATGCA_negctrl_site414],9.53 ± 0.22
3,ACGCAATATTAACAAGTGCATTATAACACATAACAT,10.1 ± 0.11
4,ATAACATTCTATGTTGCACACAAAGAGAAAAATTTA [CACACA_site9322],10.03 ± 0.092
5,AGTAGATATAATTATAGTACTTTGATGTTTTCTTTA [XGTACX_site5038],10.6 ± 0.32
6,AAAAAAAAAAAAAAAAAAAAAAAAACAATGAATTTA [GTGCAC_negctrl_site698],10.9 ± 0.31
7,TTTTTTTTTAGAAAAACATGCATGTCCTAAAAATAA [TGCATGCA_site684],10.7 ± 0.66
8,ATATGATAAATTATATGTACTTAAAATATATTATAA [XGTACX_site5904],11.3 ± 0.98
9,TGGCAAAATAGGCACACACACATATACATCTATATT [CACACA_site6626],10.08 ± 0.014
10,GTCATATATTATAATAGTACATAAATAATTGATGCC [XGTACX_site3567],11.1 ± 0.68
11,TTTTTCTATATTTTCTTTTATAAAATATATAATTTT [GTGCAC_negctrl_site345],9.65 ± 0.071
12,ATAGTTATTTTATAGCGTACACAATAAATATATAAA [XGTACX_site4445],11.7 ± 1.1
13,CACAGAAATAGAGATACACACACACCGATATTTATG [CACACA_site9313],10.22 ± 0.071
14,ATTTTTTTTTTTTTTTTTTTATTCTTAATTCATATA [CACACA_negctrl_site342],9.59 ± 0.085
15,TTTTTGTTTGTTCACGACTACATTATGTCATAAATG [CACACA_negctrl_site597],10.4 ± 0.28
16,TATATATAAATATATACACACATGAAAATAAATAAA [CACACA_site2514],10.02 ± 0.092
17,ATGTATTTATTATTTAGTACACATTATTTTCTTATA [XGTACX_site6365],11.2 ± 0.69
18,AAATTTTCTTTTAAGTGTACGAAATTTAGTATTTCA [XGTACX_site7819],11.2 ± 0.84
19,TAAACAGTATGCAACGCATGCGTTGTTATATATAAA [TGCATGCA_site232],9.88 ± 0.042
20,ATATATATATATGTGTGTACATATATGTGGATGGAT [XGTACX_site6240],11.4 ± 0.86
21,TTATAGGATCAAGCGCGTACATATCTTTATAAAAGA [XGTACX_site5775],11.5 ± 0.93
22,AGGTAGAAAAAAGACACACACATTATGTATATATAT [CACACA_site377],9.86 ± 0.028

row,Sequence,gcPBM binding intensity (ln)
1,ATTATTTTAATAAAACGTACAAAATATAAATCAAAA [XGTACX_site3770],11.2 ± 0.72
2,AAAAAATATACATATACACACATATGTATATATAAT [CACACA_site8676],9.94 ± 0.23
3,ATATACAAATATATATATATATATATATATATATAT [CACACA_negctrl_site886],9.89 ± 0.81
4,TATTTCTTTATTGGCACACATTTTTTCAATTATATA [CACACA_site4975],10.5 ± 0.25
5,GCAAATATGTTGATATGTACATATATATATATATAT [XGTACX_site445],11 ± 0.61
6,TAATGTTTTTTTTGTTTACCAAAAATAATACATTAT [CACACA_negctrl_site203],10.1 ± 0.33
7,AATAACAAAATATTAACACACATAACATATTATAAA [CACACA_site2803],9.865 ± 0.064
8,TTTTTTCATATAAATACATGCACACAAAAATATCAA [TGCATGCA_site602],10.4 ± 0.33
9,TTATATATTAATAGTAGTACTATATTGAATCACCCC [XGTACX_site2868],11.3 ± 0.85
10,TATTTATACTCAACTTTCTGTTATTCCAACTTTTTT [XGTACX_negctrl_site410],10.1 ± 0.16
11,AGTTTATAGTGATATTGTACATATATATATATATAT [XGTACX_site572],10.9 ± 0.59
12,TTATTTTTGTTTTGAAGTACAAAAAAATATATTCTT [XGTACX_site6416],11.1 ± 0.79
13,AAAATTTATATAAGCACACAAATATATATTTATATC [CACACA_site3291],9.92 ± 0.014
14,ACATAAGAACATATTTGTACGTATATAAATTAAATA [XGTACX_site6127],11.4 ± 0.79
15,TTTTAAATCTTATATTCCCCACATAAATAGCTCTCT [GTGCAC_negctrl_site665],9.795 ± 0.035
16,ACAACAAAAATAAGCACACACAAATATACATACATA [CACACA_site7664],10.2 ± 0.29
17,CAACATTAATATAAAGCACACATATATATAATATAT [CACACA_site8064],9.955 ± 0.035
18,ACTCTATAATAAAATACACACAAGACTATCTAATAT [CACACA_site1796],10.12 ± 0.071
19,TTAACGCTTATTTTTTGTACTTATTTTATTTTAAAT [XGTACX_site3977],11.2 ± 0.59
20,ATATATACATATAATTGTACTTGTGTTGTTTTTCTT [XGTACX_site1870],11.1 ± 0.67
21,TAATTATATAAATATTGTACAAAAAAAATATATATA [XGTACX_site3137],11.1 ± 0.73
